# Over roughly 2,300 sequences, “median log2 fold change of GCK-ALFA target abundance (FLAG IP / Myc IP barcode read proportion)” has its median near 0.095; the lowest 2% begin near -0.47. The list shows a part of the results.
# B1: LC3A_28_664 (protein)
# chain: SELDERLEEALEEAERAKALGEPTVVTITVRGDATEEEIERVIETLERIAEILAPIEGSAIIIDLDGDVPEEHRDRLIDKGEELEEKYPNVTVIFAIEEE
# B2: LC3A_28_1302 (protein)
# chain: MSIEEKLEEALKRVKEAAEKGEEVVVTVDITAEEAEENLELILEGLKRLGEEASKAPGAVIIVDLDDDVDEENRNKIIDTADEIEEKYPNVTVIIAIEDD
# B3: LC3A_28_727 (protein)
# chain: NELEKSLKEALEKAKELAEKGESDVIEITVPGDATEEDIEKLKEALEEIAEIVKDLERVDIIIDVEGGVKQEHIDKIADKAEEIEKKYPNVTVIIALDED
# B4: LC3A_28_1271 (protein)
# chain: SAIDEELARAMAAAEEAVAAGEPAVITIHVPGGATEEDIEKVIAGLEEIAEKLSSVPDQAIVIDVDSGVKQEHIDKLVDAAEEIEEKYPNVTVIIALDED
# B5: LC3A_127_200 (protein)
# chain: EKKKLLEKALELAEKALKALQKIPEEGEEAIKKAKELLKELLKLLKEIPELKESAKDVEQAIEILDKLPELSEADREEAIEHLEMIVDGVAIDIESALLK
# B6: LC3A_141_382 (protein)
# chain: MKKTFKVTFTPEEIQKLFDFMDEVEKAILEMIKESGGKPVKVKVKITAENPKTGEVKVIEEEFTVTEENVDMVVEGIAIEAASLADEIGGTVTVEVELEV
# B7: LC3A_28_756 (protein)
# chain: MDIEGIIEKAIEEAKEAKEKGEEKVIRIRVPKGATQEDIEKVIKGMEEIAEITKDMESTAILVDIEAGVKQEHIDKLIDAGEEIEKKYPNVTVIFALDED
# B8: LC3A_132_236 (protein)
# chain: QEKKLEEIEKKLEELLEEARKNIDDLEKVKKLLEEIEKLLEEAKKELSLEEFIELAEKVAKRLDELAEEAEKAGKEEVAALLENASLYADGLAIEAELEE
# B9: LC3A_free_39_2284 (protein)
# chain: MEELIEELLERIKEADPNLTEEDIKAIRELLELVSDNPELAKEIAEAIIEALRAGVDREEILKLIKKANKEMKENPEEREKIAKELIEDLRDLANLVPLD
# B10: LC3A_28_1284 (protein)
# chain: SPLDESLAAARAAAEAAAAAGEPAVITIKIPGGATQEEIEKAIATLEEIAEILKDVPDQAIVVDIDSGVEQEHIDKIADKAEEIEEKYPNVTVIIALDED
# B11: LC3A_28_665 (protein)
# chain: SALDAALAAALAEAREGLARGEPTVVTITVPGTADQAQIDRVLATLEEIAELLAPVPGSAIVIDLDGDVPQEHRDRLIDRAEELEERYPNVTVIIAEEEE
# B12: LC3A_45_1945 (protein)
# chain: MAKATVLVLVPEEKFDEALKVLREAAERISKERGIEVEIDEEAVKEAREEAKKNGEALLELTVYSDDEDTALDAAVEIADELERKLGPEVAVAIAIEEIP
# B13: LC3A_28_1332 (protein)
# chain: SHIEEQLAAAKATAQEQLAAGEDVVIEVTFTGETTLEDAEYAMEKLEEIVKEVAPKTKVSIIINVDGGVSQENIDLIAEKADEIEKKYPNATVIIALDEE
# B14: LC3A_free_26_2160 (protein)
# chain: EEFVDIYNIDKAIELLEEALKLVKEENPEAKELIELLEKAIELVKKETLESLEKALELVEKAIELVKKDKSFSEEAKEKLLKLLEEAKEHIKENIEIMKS
# B15: LC3A_free_46_2414 (protein)
# chain: WKVEVEVWTRAAPKEEIDALVEELTAGAKEIAAKHGAEVKIEVEYFKNEDGTYSALITITVTVDDEETAKKIAQELLDKIDELDEKTGLIGLISVEVIKE
# B16: LC3A_74_2069 (protein)
# chain: SLTLEEVEEAERNIAILKAALEYLSELGLISEEEKKEYEETIKKLKELLKKQGQLTEAVEGGIEVEAELIRLRLEGKVEEMKELAKEALERAKELLKKAE
# B17: LC3A_3_1836 (protein)
# chain: LEEAEAALLEELKAAGHSEETLEAVRATLEALRARGYEEAARTFIELLRENVHLPSELLLELAEEVLELVETEDLSEEELTEEIRRLFRLYRNDYEIEEL
# B18: LC3A_3_1665 (protein)
# chain: MEEEIEKALKYLKEKGKSEETLEAVEKAAKALKEKGYEETLKTFIELLKKMSHLSDEILLDFAKDVLELVKTSDLSEEEMKKKIKELATIAENEAEIEEL
# B19: LC3A_45_1932 (protein)
# chain: MYEGELDVLVPKELAEKAYEIILKKAEELEKKYGDKIKVDKEVLEKSYEESKDEEDVYFRLIIYSKDKDLVLDALDEIEDELEEELDGKVAAIISVKEVE
# B20: LC3A_28_890 (protein)
# chain: SEALESAEKALAQVKAAVAAGDQSPLVLEVKAPSNEEDVEKFIKLLEEIAKAAAALSGVTIIIDISEEVSEENKNKIIDKAEELEKKYPNVTVIIALPES
# B21: LC3A_28_825 (protein)
# chain: MEAEEIIKKLKEQAEAAKAAGEPAVIVVDINEKITEEEAKKIGEAMKEAAEKLKDLPGTAIIINLNVKQSQEVLDILMETADEIEEKYPNITVIIALPED
# B22: LC3A_3_1759 (protein)
# chain: MEEFLEEARERLRAAGADEELLEKAERALRLLLERGLEETAREFVEALLTLLAKSKELALELAEDVLRLLETSTLSPEELAEEVRSLINAALSEAEIEEL
# B23: LC3A_147_516 (protein)
# chain: YKVTVEIDLLLKNSKELAEEMAEEIKEYLESKGYEVEVELEFEEDEDGTIFAKITITVKAETKEEAEKVANEVLEKIDELLEKYKDKILGALISVSIEEE
# B24: LC3A_147_394 (protein)
# chain: YLLEITIDLIVKNAEEEIIKEIEELVEELKEKGYEVELEVKKEKLDEETTYVEITIKVRAETLEEAQAARDEILDHLDEIEEKYKDKILGSLISSEIIEE
# B25: LC3A_3_1445 (protein)
# chain: SEELKEEGLELLKERGASEETIEAAERLFDALEEKGYLEAQKLVLEWLKKVKDASDEFLLEAFEDLLELVETSDLSPEEMKKLIEEELSSFESELEIIEL
# B26: LC3A_3_1590 (protein)
# chain: MEELVKENLERLRKAGLSEEVLEAARKVLEALAERGFEEAMKVLTEELLELKDVDPEVLLAMLEEILEKVETEDLNEEEIIKEIKEEARVARLDAEIIEL
# B27: LC3A_3_1749 (protein)
# chain: MEEILEEVRKLLEEQGKSEETIEAALKLVKLLLERGFEEAVKTFIELLKESKDLPDEILLDMIKDILEYVESNDINEEEAIEKIKEEFKIAKSESEIIEL
# B28: LC3A_free_26_2150 (protein)
# chain: DEFIDIYDLDKAIELLEELLKLLEEDEEASEELKKLAKEALEEVKKETLESLEKAAELLEKLLKLLEADESLDPEKKAKLIELAKKALEHVKRNIEIMKS
# B29: LC3A_3_1447 (protein)
# chain: AEELREEALELLRERGASPETIAAAEELFDALIEKGYLEAMELVLEFLKEVKDASDEFLLETFKDLLELVLTSDDSPEEMKKKIEEELSAFRSELEIEEL
# Biological target: MAP1LC3A, Q9H492
# Test: median log2 fold change of GCK-ALFA target abundance (FLAG IP / Myc IP barcode read proportion) (log2 ratio); each designed protein is fused to an ALFA-tag nanobody in HEK293 cells to bring the named protein to FLAG-tagged glucokinase (GCK); Myc marks an untargeted standard; higher = target protein stabilised (more abundant)
# Details: target protein: 3xFLAG-MCP-GCK-ALFA reporter; HEK293 landing pad (RPLP)
# Method in brief: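 Sequencing of reverse-transcribed, amplified circular RNA barcodes from anti-FLAG and anti-Myc immunoprecipitates provided the readout for an ALFA-nanobody-fused binder library recombined into HEK293 landing-pad cells. Those cells were induced with 2 μg mL^−1 doxycycline, transfected with a plasmid expressing a FLAG-tagged target and a Myc-tagged standard, and lysed after 48 h. Target abundance is the per-binder median log2 ratio of FLAG to Myc barcode read proportions. Only barcodes at a proportion of ≥10^−7 in both replicates and binders with ≥3 barcodes per replicate were kept, with a 10^−6 pseudocount added before the two replicates were pooled.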
row,Binder,median log2 fold change
1,B1,-0.247
2,B2,0.0116
3,B3,0.0944
4,B4,-0.33
5,B5,0.0801
6,B6,0.128
7,B7,-0.252
8,B8,-0.0956
9,B9,-0.0351
10,B10,0.013
11,B11,0.082
12,B12,0.148
13,B13,-0.0109
14,B14,0.228
15,B15,0.183
16,B16,0.214
17,B17,-0.0316
18,B18,0.103
19,B19,0.239
20,B20,-0.252
21,B21,0.0111
22,B22,0.245
23,B23,-0.0638
24,B24,-0.0114
25,B25,0.105
26,B26,0.114
27,B27,0.205
28,B28,0.344
29,B29,0.173

# — the supplement of paper PMC12632987
